Data reported in the supplement of paper PMC11417369.
± gives the standard deviation of the averaged measurements. The list shows a part of the results.

Tested on: PfAP2-I AP2 domain 3 (GST-tagged)
Assay: gcPBM binding intensity (ln(normalized median fluorescence intensity)); higher = stronger DNA binding
Summary of the method: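 Probes on an Agilent 4 × 180k array were primer-extended, double-stranded and 36 bp long, taken from intergenic genomic regions, with negative controls added. GST-tagged P. falciparum DNA-binding domains from E. coli, about 25 μg on average, were applied to the array for 1 h in 1× PBS containing 1% milk, 0.2 mg/ml BSA, 0.5% salmon testes DNA and 0.03% Triton X-100. Binding intensity, obtained after Alexa488 anti-GST antibody detection and a 488 nm scan, is the highest Masliner-normalised natural-log median intensity across replicate spots of either probe orientation.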

Sequence	gcPBM binding intensity (ln)
TCTTTAATGATGTGTACACAAGAAAACATTGTTAAG [CACACA_site5299]	8.13 ± 0.59
TAGAAGCATCATTTTACACACATGCAAATGTAAAAT [CACACA_site1893]	8.12 ± 0.77
AAAAATAAGAGCGTAGCACACACGCATTTTATAAAT [CACACA_site8147]	7.5 ± 0.61
CCTACAATTCGTAATACACACACATATATATATATA [CACACA_site9251]	9.29 ± 0.25
ACATTATATAAAATATGTACACATAAATAAATAAAT [XGTACX_site5031]	8.02 ± 0.72
TCATATTATAAAAAATGTACAAGGAAAAAATATATA [XGTACX_site337]	7.99 ± 0.67
TAATTTTGTAAAAATTGTACATATTTATCTTTTTAT [XGTACX_site4305]	7.55 ± 0.26
AAAAAAAAAAAAAACACACACATATAATATATTTAA [CACACA_site1337]	8.11 ± 0.49
AAAAAATTCAAAATCACACATAAAAAAGGACACATA [CACACA_site5972]	7.92 ± 0.28
CTTGGGCGTCATAATGAACACACAATTATATTATGA [CACACA_site9297]	7.51 ± 0.36
TTATTACCATATTTTGTACACACATCTTTATCTCAA [CACACA_site9054]	8.23 ± 0.64
ATATATACAAATCCTTTTTTCCAAGATGGAAAAAGA [CACACA_negctrl_site382]	7.58 ± 0.53
AAAATAATAAATAACGCATGCGTGTGCATTTTATTC [TGCATGCA_site898]	9.46 ± 0.042
ATTATATAATCTATATGTACATATATATATATATAT [XGTACX_site4970]	9.51 ± 0.56
TATATATAAGCGCATGCACACGCAAAGGTATATAAA [CACACA_site8107]	7.95 ± 0.49
ATAATAATATTATTTTGTACATATGTGCTTATTTAT [XGTACX_site5540]	8.375 ± 0.035
AGTAATAAGTAATTTACACACATATTATAGCATCAC [CACACA_site6971]	7.7 ± 0.5
TTTTGTCAACATTTTTATATTAGGTCTTGAACGATT [GTGCAC_negctrl_site72]	7.59 ± 0.61
GTATAATTTAAAAAGTGTACATAAAGTTTTTATTAA [XGTACX_site1090]	7.92 ± 0.24
ATATATATGGTCATTTGTACATATCGTGAGAGCTGC [XGTACX_site4117]	7.82 ± 0.67
ATATAACATAATGGATGTACATGTATAAATATAAAA [XGTACX_site8228]	8.19 ± 0.54
AGAATCACCAAATATGTACACACCTTAACATGTTTA [CACACA_site2068]	8.06 ± 0.64
TATATTATAAATTAATGTACGTAATTTTTTTTTTTT [XGTACX_site2500]	7.64 ± 0.21

Sequence	gcPBM binding intensity (ln)
TTTTTTTTTTACTTCACACATATACATTTATATTTA [CACACA_site4385]	8.14 ± 0.67
TAAACATACAGATACACACACACACCCACAGAGACA [CACACA_site4429]	8.24 ± 0.28
TAAATGTGTATATATTGTACAAATATTAATACATAC [XGTACX_site8102]	7.91 ± 0.27
AAATTGTTAAAAAGAAGTACATTCTTTTATTTCTTA [XGTACX_site540]	7.5 ± 0.4
AAAGAACTTAATGCTGCACACAAAAAAAAGGAAAAA [CACACA_site8375]	8.84
ATAATGAAGACTTTTTTACACACTTCATATATTATA [CACACA_site8630]	8.1 ± 0.54
TGATATTTTTCCATAGTGCAAAATATAGTAATGTAT	10.4 ± 0.3
TTACATACATACAAGTGTACGCATATATTAATATTA [XGTACX_site4006]	8 ± 0.26
TTTAACATTTCAGATGTGCACATTTTCCGAACCAGT	9.865 ± 0.021
ATATGTACAAGTTATACACACATGTACAGTTATATA [CACACA_site6706]	7.98 ± 0.38
AGAACGACTAAGCAGTGTACATTTTGTATATACAAT [XGTACX_site2831]	7.67 ± 0.59
ATGAATATAAAATATACACACTTATATATTGAATGA [CACACA_site4274]	7.37 ± 0.61
GTTAATTCATTAAGGACACACAAAAAAAAAAAAAAA [CACACA_site998]	8.06 ± 0.67
GATTAAATTTGACACTGTACAAAAAATAAAATGAGG [XGTACX_site504]	8.2 ± 0.45
AGTATACATATATATACACACACATATATATATATA [CACACA_site7883]	9.43 ± 0.35
CTTATATGAAGCCTCTTTATTCATAAATAAGAATAA [TGCATGCA_negctrl_site120]	7.38 ± 0.39
CCAACATAGAGGGGCACACACATATATACATAAAAA [CACACA_site1847]	8.4 ± 0.21
TTAACAAAATTTCCGTGTACGTAAATAAGAACATAG [XGTACX_site7200]	8.36 ± 0.16
AAACAACATGGACACGCACACACAAAAAAAGCATGC [CACACA_site73]	8.15 ± 0.42
ACAAACTAAAAAAGAAGTACAAATCGTATTAATAAT [XGTACX_site8684]	7.81 ± 0.44
TTTTTTGAAAATAAAAGTACAAATTTTATATTTAAA [XGTACX_site2758]	7.65 ± 0.14
AGAAAAAAACGGTACAGTACACATAAACTAATTATT [XGTACX_site8617]	7.83 ± 0.59
